The BET-seq Pho4 binding data (Le et al. 2018)
This is one part of the list. These are noisy estimates, calculated here from bound and input reads.

What follows are sequences tested against T1, Pho4 (S. cerevisiae) (UniProt P07270) (assay: relative binding free energy (BET-seq); higher = weaker binding). Conditions: reference: library average.
T1 sequence: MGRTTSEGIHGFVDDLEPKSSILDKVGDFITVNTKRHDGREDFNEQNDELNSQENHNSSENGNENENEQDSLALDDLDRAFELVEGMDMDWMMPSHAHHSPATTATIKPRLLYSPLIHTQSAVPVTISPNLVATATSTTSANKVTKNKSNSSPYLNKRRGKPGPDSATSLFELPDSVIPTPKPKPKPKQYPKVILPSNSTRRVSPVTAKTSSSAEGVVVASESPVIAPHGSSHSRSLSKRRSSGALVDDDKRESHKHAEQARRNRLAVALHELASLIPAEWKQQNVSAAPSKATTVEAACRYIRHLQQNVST

Relative binding free energy, -0.08 kcal/mol:
GAGGGCACGTGGGATG
TGGTGCACGTGGCCAT
ATGAGCACGTGTTGGT
GTCGGCACGTGGTTAT

Relative binding free energy, -0.21 kcal/mol:
TGTCGCACGTGGCATG
AGTGGCACGTGGGGCA

Relative binding free energy, 0.04 kcal/mol:
TGGGACACGTGTTTCA
GCGCTCACGTGGGTTG
TTGTGCACGTGTGCTC

Relative binding free energy, 0.08 kcal/mol:
TTTCTCACGTGTTGTA
GATAACACGTGGTTTG
CTTGTCACGTGCGGCT

Relative binding free energy, 0.46 kcal/mol:
TTTTTCACGTGAGTTG
ACGTTCACGTGACGGT

Relative binding free energy, -0.16 kcal/mol:
TCGTGCACGTGGGCAG
TTTGCCACGTGGTGAG
TAGGGCACGTGTTCTA

Relative binding free energy, 0.27 kcal/mol:
TTAAACACGTGAGTAT
GTTCTCACGTGTGTAG
ACTTTCACGTGGGTGA
GTTGGCACGTGAAGTG
TTACTCACGTGGAAGG

Relative binding free energy, 0.43 kcal/mol:
TGTATCACGTGAGTTC

Relative binding free energy, 0.3 kcal/mol:
TTGTACACGTGAATAG

Relative binding free energy, 0.23 kcal/mol:
GTTTCCACGTGTAAGT
AATGTCACGTGATTTT
GTTGGCACGTGACGTT
TAAGTCACGTGGATTT
GATAGCACGTGAAAGG

Relative binding free energy, 0.33 kcal/mol:
GTGGACACGTGAGGAG
GGATACACGTGTAGAT
CTGTTCACGTGAGGTA
TGGTTCACGTGGATCA
TATATCACGTGAGGTG
ACATTCACGTGTGGGA

Relative binding free energy, 0.18 kcal/mol:
CTTATCACGTGTAGTG
ATGGTCACGTGTGAAC
GTTATCACGTGGGACT

Relative binding free energy, 0.26 kcal/mol:
TATCTCACGTGTTGTA
TGATTCACGTGTTGAG
TGGGTCACGTGAGTGC

Relative binding free energy, 0.14 kcal/mol:
ATGGTCACGTGATAGT
CGTGTCACGTGAGAGT
TTGAACACGTGTGTGT
AGCGTCACGTGATGTG

Relative binding free energy, -0.18 kcal/mol:
AGGAGCACGTGGCGGT
TATGGCACGTGGATAG

Relative binding free energy, -0.06 kcal/mol:
GGTTGCACGTGGCGGT
TGTGCCACGTGCGGCG
CTTGCCACGTGGTATT
ATTATCACGTGGGGTC
TTATCCACGTGGTGGT
CGGATCACGTGGGGAA

Relative binding free energy, 0.42 kcal/mol:
AGATTCACGTGAATGG

Relative binding free energy, -0.22 kcal/mol:
AAAAGCACGTGGGGTG
ATAGGCACGTGGGTTC

Relative binding free energy, 0.4 kcal/mol:
GTGTACACGTGATGGT

Relative binding free energy, 0.39 kcal/mol:
GCTGTCACGTGATGGC

Relative binding free energy, -0.15 kcal/mol:
CTGGACACGTGGGAGG
TTCTGCACGTGGGTCT
GCGGGCACGTGGGAAA
TGATACACGTGGGGTT

Relative binding free energy, 0.09 kcal/mol:
AGGATCACGTGTTTGG

Relative binding free energy, -0.13 kcal/mol:
TGGTGCACGTGGCGCT
CTAAACACGTGGGGGG
TGAGGCACGTGATGTA

Relative binding free energy, 0.19 kcal/mol:
GTTTTCACGTGTACGG
TTATTCACGTGCAGTA
ATGGTCACGTGTGGGC
GGTGTCACGTGTACAG
TTAATCACGTGTAGCG
AGCTTCACGTGGCTGG

Relative binding free energy, -0.33 kcal/mol:
GGGCGCACGTGGGGTG

Relative binding free energy, 0.17 kcal/mol:
TTTTACACGTGATGTT
GTGGACACGTGTGTAA
GTCGACACGTGATAGG
TTTCTCACGTGTTATA

Relative binding free energy, -0.04 kcal/mol:
AGGTGCACGTGCGATT
ATGCTCACGTGGGTGA
GGTCGCACGTGTGTCG
TCTGGCACGTGTAAGG

Relative binding free energy, 0.24 kcal/mol:
TTCTACACGTGAAGTT

Relative binding free energy, 0.32 kcal/mol:
ATTTTCACGTGTGACT
ATCTGCACGTGAGGTG
AAGTCCACGTGAAGGG
CAAATCACGTGAGGGT

Relative binding free energy, -0.02 kcal/mol:
TTTAGCACGTGGAGAT
CGTATCACGTGGGGGG
TATAACACGTGTAATT
GAAGGCACGTGTGGGT
TTGAACACGTGGCGGC
GGTAACACGTGGGGAG
TTAGACACGTGGTGTA
TGTAGCACGTGTCCGG
AGTGTCACGTGGTGTA

Relative binding free energy, -0.17 kcal/mol:
TGGGGCACGTGTTGCC

Relative binding free energy, 0.45 kcal/mol:
GATTTCACGTGGCCTG

Relative binding free energy, 0.36 kcal/mol:
GTGATCACGTGAGGGG
CGGTACACGTGAGTTA

Relative binding free energy, 0.16 kcal/mol:
TTAGACACGTGACGGT
GTTGGCACGTGTGATT

Relative binding free energy, 0.11 kcal/mol:
GGAGTCACGTGCCGTG
GGGGTCACGTGCGGCT
ATCGACACGTGTGGTA
CTTAGCACGTGATAGT
TGGGCCACGTGTGAGA
TCTGTCACGTGTGTAG
GGCTTCACGTGTATTG

Relative binding free energy, -0.01 kcal/mol:
AAGTGCACGTGTTGTA

Relative binding free energy, 0.25 kcal/mol:
AGATTCACGTGGTTGA

Relative binding free energy, 0.02 kcal/mol:
TTTAGCACGTGTGGCA
CGGGGCACGTGATGAT
TTATGCACGTGTGTGG
TGGTGCACGTGGATGA
TGGGACACGTGGCGGG
GATGGCACGTGGTGGC
AGCGTCACGTGGTGAG

Relative binding free energy, -0.03 kcal/mol:
AGGTGCACGTGTGGCA
ATTGACACGTGGATGT
GTAGCCACGTGGATGG
TGTGACACGTGGGGTC
GGTAGCACGTGTGTAG
AGGAACACGTGGCTGG
CGGTGCACGTGACGTG
TATAGCACGTGTGTAT
ATTGGCACGTGAGCGG
TATGTCACGTGCCGTT

Relative binding free energy, -0.3 kcal/mol:
TGGACCACGTGGGTAG

Relative binding free energy, 0.01 kcal/mol:
CGTGACACGTGTTGTT
TCTCGCACGTGTGGGG
AGGTACACGTGGTAAA
GTGCGCACGTGTTTGG
TTGCCCACGTGATGGG
TAGATCACGTGGGTTA
GGGTACACGTGGAGTA
ATTGACACGTGGATTT

Relative binding free energy, 0.2 kcal/mol:
GCGTGCACGTGGATAG
AGTGCCACGTGAAGTG
GACTTCACGTGGTGTA

Relative binding free energy, 0.31 kcal/mol:
GGTGTCACGTGAGCTA
AGCATCACGTGAGTTG
TTAATCACGTGTGATT

Relative binding free energy, -0.1 kcal/mol:
GTGGGCACGTGTTTGA
GTGTCCACGTGTATGT
TTTTCCACGTGGGTTT

Relative binding free energy, -0.05 kcal/mol:
AGGGACACGTGGTGAA
GAGTGCACGTGGCTTG

Relative binding free energy, 0 kcal/mol:
ATGAACACGTGTGTAT
ATGTACACGTGGATGC
TGGTGCACGTGTTGTT
TTTGGCACGTGACGTT
CTTTGCACGTGTTGGG
AGTGGCACGTGTTTGA
TAAGTCACGTGGTCAT

Relative binding free energy, 0.37 kcal/mol:
GGATTCACGTGTATGT
GCATTCACGTGAGTGT
GTGCTCACGTGTGTTA

Relative binding free energy, -0.09 kcal/mol:
AAGAACACGTGGGTAT
TAAGGCACGTGTATTT
GGTAACACGTGGGGCA
GCAGGCACGTGGATGT
TTTGGCACGTGGAGGG

Relative binding free energy, 0.06 kcal/mol:
GGGAGCACGTGTATTT
TGAGACACGTGTAAGG
ACAATCACGTGGGTGT
ACGGTCACGTGTGTGT
TATTACACGTGATTTA
TTGAGCACGTGGAGAA

Relative binding free energy, 0.35 kcal/mol:
AATCTCACGTGTGTAG

Relative binding free energy, -0.19 kcal/mol:
GTGCGCACGTGGCTGG

Relative binding free energy, -0.12 kcal/mol:
CTTTGCACGTGGTTCT
TAGGGCACGTGGCTTA
AATGTCACGTGGGCAT
CTGATCACGTGGGTAT

Relative binding free energy, 0.38 kcal/mol:
TTCATCACGTGAAATG

Relative binding free energy, 0.1 kcal/mol:
TCTTACACGTGTTTAT
CGTAGCACGTGAAGGT
GAGATCACGTGGTGAT
CTTATCACGTGTTGGC
TAAATCACGTGTGGGC
GAGTACACGTGTAGTG

Relative binding free energy, 0.29 kcal/mol:
TGTGTCACGTGAGTAA
ATGTCCACGTGAGTGT

Relative binding free energy, 0.41 kcal/mol:
TTATTCACGTGAGAGT
TCTGACACGTGAGATT

Relative binding free energy, 0.28 kcal/mol:
GGAGGCACGTGAATGA
CGAGTCACGTGAGGCG
TACTACACGTGAGGTT
GACAACACGTGGAGGT

Relative binding free energy, 0.12 kcal/mol:
ATGTTCACGTGCATGG
GGTGGCACGTGTGGAG
GGGCACACGTGCGAGG
AGATACACGTGCAGGG

Relative binding free energy, -0.2 kcal/mol:
TTACGCACGTGGCGTG

Relative binding free energy, -0.07 kcal/mol:
CGGTGCACGTGTTGGC
ATTGGCACGTGTTGCT
TACGTCACGTGGGCGT
GTTGGCACGTGGTCAA
TTGTGCACGTGGGCAT

Relative binding free energy, 0.05 kcal/mol:
ATCGTCACGTGGTGGA

Relative binding free energy, 0.03 kcal/mol:
AGTGGCACGTGACGTG
AGTTCCACGTGTGGGA
TAGATCACGTGTTGCG
ATTGTCACGTGCGCAG
TACATCACGTGGGGGA
TTGTCCACGTGGAAGT

Relative binding free energy, -0.27 kcal/mol:
ATGAACACGTGGGCGG
CGGGCCACGTGGGTAT

Relative binding free energy, -0.14 kcal/mol:
GGGGACACGTGCGAGG
TGGGACACGTGGTACT

Relative binding free energy, 0.21 kcal/mol:
TGGTCCACGTGTTAAA
AAATTCACGTGGTATT
GCGGTCACGTGCGATG
TGTAGCACGTGAGGAC

Relative binding free energy, 0.07 kcal/mol:
TAAATCACGTGGGCTA
ATAGTCACGTGCAAGG
GTTGTCACGTGGCTGC
TGGGGCACGTGAAGCA
ATTCACACGTGCGGGT
GTAGACACGTGGCGTT
TTCTACACGTGGCGTG
GGAGACACGTGTGGAT
TATGGCACGTGTAACG

Relative binding free energy, 0.15 kcal/mol:
TGTTGCACGTGATGAA

Relative binding free energy, 0.22 kcal/mol:
TGTAGCACGTGAACGT
CGGGACACGTGAGTTT

Relative binding free energy, -0.28 kcal/mol:
ATGTGCACGTGGTATA

Relative binding free energy, 0.13 kcal/mol:
CAGTACACGTGTAGGG
AAGGACACGTGTGTAA
GGTTACACGTGGGAGA
